PMC9413201 (2022)

Biological target: T1, FtsB-derived peptide 24 64-87 (Escherichia coli, UniProt P0A6S5, N-terminal FITC-PEG2)
T1 chain: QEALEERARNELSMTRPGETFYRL
Assay: fluorescence polarization

- Kd: 9.6 µM
B1: FtsQ […] (protein)
chain: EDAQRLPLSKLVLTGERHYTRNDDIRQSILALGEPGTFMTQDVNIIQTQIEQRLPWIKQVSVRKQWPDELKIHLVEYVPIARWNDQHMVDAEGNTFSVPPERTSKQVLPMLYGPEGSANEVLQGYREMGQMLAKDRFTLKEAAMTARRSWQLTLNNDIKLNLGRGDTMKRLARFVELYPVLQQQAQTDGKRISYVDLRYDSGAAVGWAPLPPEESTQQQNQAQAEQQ
